Data on one molecule can be found in the supplement of paper PMC8728848.

Assay in all cases: glycan array binding signal (z-score within array); higher = stronger binding
Common to all, as to conditions: glycan notation: IUPAC condensed, linker removed

Experiment [1] concerns the target Gal(b1-4)GlcNAc(b1-3)Gal(b1-3)GlcNAc. Put shortly:
(§1)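 From the Consortium for Functional Glycomics database, 3228 arrays were curated, keeping only those whose protein sequence was available. Binding is given as a within-array Z-score averaged across arrays sharing a protein sequence and across linkers. Negative Z-scores can be read as non-binding.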

The target of experiment [2] is Gal(b1-4)GlcNAc(b1-3)Gal(b1-4)Glc. Summed up:
as §1

Experiment [3] concerns the target Gal(b1-4)GlcNAc(b1-3)Gal(b1-4)GlcNAc. Summed up: as §1
Experiment [4] addresses Gal(b1-4)GlcNAc(b1-3)Gal(b1-4)GlcNAc(b1-2)Man(a1-3)[Gal(b1-4)GlcNAc(b1-3)Gal(b1-4)GlcNAc(b1-2)Man(a1-6)]Man(b1-4)GlcNAc(b1-4)GlcNAc. Summed up: as §1
Experiment [5] has as its target Gal(b1-4)GlcNAc(b1-3)Gal(b1-4)GlcNAc(b1-2)Man(a1-3)[Gal(b1-4)GlcNAc(b1-3)Gal(b1-4)GlcNAc(b1-2)Man(a1-6)]Man(b1-4)GlcNAc(b1-4)[Fuc(a1-6)]GlcNAc. Put shortly:
as §1

For experiment [6], the target named is Gal(b1-4)GlcNAc(b1-3)Gal(b1-4)GlcNAc(b1-2)[Gal(b1-4)GlcNAc(b1-3)Gal(b1-4)GlcNAc(b1-6)]Man(a1-6)[Gal(b1-4)GlcNAc(b1-3)Gal(b1-4)GlcNAc(b1-2)Man(a1-3)]Man(b1-4)GlcNAc(b1-4)GlcNAc. Put shortly: as §1
The target in experiment [7] is Gal(b1-4)GlcNAc(b1-3)Gal(b1-4)GlcNAc(b1-2)[Gal(b1-4)GlcNAc(b1-3)Gal(b1-4)GlcNAc(b1-6)]Man(a1-6)[Gal(b1-4)GlcNAc(b1-3)Gal(b1-4)GlcNAc(b1-2)Man(a1-3)]Man(b1-4)GlcNAc(b1-4)[Fuc(a1-6)]GlcNAc. Put shortly:
as §1

Experiment [8] has as its target Gal(b1-4)GlcNAc(b1-3)Gal(b1-4)GlcNAc(b1-3)Gal(b1-4)GlcNAc. Put shortly: as §1
The target of experiment [9] is Gal(b1-4)GlcNAc(b1-3)Gal(b1-4)GlcNAc(b1-3)Gal(b1-4)GlcNAc(b1-2)Man(a1-3)[Gal(b1-4)GlcNAc(b1-3)Gal(b1-4)GlcNAc(b1-3)Gal(b1-4)GlcNAc(b1-2)Man(a1-6)]Man(b1-4)GlcNAc(b1-4)GlcNAc. Put shortly:
as §1

Experiment [10] deals with Gal(b1-4)GlcNAc(b1-3)Gal(b1-4)GlcNAc(b1-3)Gal(b1-4)GlcNAc(b1-2)Man(a1-3)[Gal(b1-4)GlcNAc(b1-3)Gal(b1-4)GlcNAc(b1-3)Gal(b1-4)GlcNAc(b1-2)Man(a1-6)]Man(b1-4)GlcNAc(b1-4)[Fuc(a1-6)]GlcNAc. Put shortly: as §1
In experiment [11] the target is Gal(b1-4)GlcNAc(b1-3)Gal(b1-4)GlcNAc(b1-3)Gal(b1-4)GlcNAc(b1-2)[Gal(b1-4)GlcNAc(b1-3)Gal(b1-4)GlcNAc(b1-3)Gal(b1-4)GlcNAc(b1-6)]Man(a1-6)[Gal(b1-4)GlcNAc(b1-3)Gal(b1-4)GlcNAc(b1-3)Gal(b1-4)GlcNAc(b1-2)Man(a1-3)]Man(b1-4)GlcNAc(b1-4)[Fuc(a1-6)]GlcNAc. Put shortly:
as §1

Experiment [12] has as its target Gal(b1-4)GlcNAc(b1-3)Gal(b1-4)GlcNAc(b1-3)Gal(b1-4)GlcNAc(b1-3)Gal(b1-4)GlcNAc(b1-2)Man(a1-3)[Gal(b1-4)GlcNAc(b1-3)Gal(b1-4)GlcNAc(b1-3)Gal(b1-4)GlcNAc(b1-3)Gal(b1-4)GlcNAc(b1-2)Man(a1-6)]Man(b1-4)GlcNAc(b1-4)GlcNAc. Summed up:
as §1

Experiment [13] concerns the target Gal(b1-4)GlcNAc(b1-3)Gal(b1-4)GlcNAc(b1-3)Gal(b1-4)GlcNAc(b1-3)Gal(b1-4)GlcNAc(b1-2)Man(a1-3)[Gal(b1-4)GlcNAc(b1-3)Gal(b1-4)GlcNAc(b1-3)Gal(b1-4)GlcNAc(b1-3)Gal(b1-4)GlcNAc(b1-2)Man(a1-6)]Man(b1-4)GlcNAc(b1-4)[Fuc(a1-6)]GlcNAc. Put shortly:
as §1

The target in experiment [14] is Gal(b1-4)GlcNAc(b1-3)Gal(b1-4)GlcNAc(b1-3)Gal(b1-4)GlcNAc(b1-3)Gal(b1-4)GlcNAc(b1-2)[Gal(b1-4)GlcNAc(b1-3)Gal(b1-4)GlcNAc(b1-3)Gal(b1-4)GlcNAc(b1-3)Gal(b1-4)GlcNAc(b1-6)]Man(a1-6)[Gal(b1-4)GlcNAc(b1-3)Gal(b1-4)GlcNAc(b1-3)Gal(b1-4)GlcNAc(b1-3)Gal(b1-4)GlcNAc(b1-2)Man(a1-3)]Man(b1-4)GlcNAc(b1-4)[Fuc(a1-6)]GlcNAc. Summed up: as §1
Experiment [15] deals with Gal(b1-4)GlcNAc(b1-3)Gal(b1-4)GlcNAc(b1-3)Gal(b1-4)GlcNAc(b1-3)Gal(b1-4)GlcNAc(b1-3)Gal(b1-4)GlcNAc(b1-2)Man(a1-3)[Gal(b1-4)GlcNAc(b1-3)Gal(b1-4)GlcNAc(b1-3)Gal(b1-4)GlcNAc(b1-3)Gal(b1-4)GlcNAc(b1-3)Gal(b1-4)GlcNAc(b1-2)Man(a1-6)]Man(b1-4)GlcNAc(b1-4)GlcNAc. Summed up:
as §1

The target in experiment [16] is Gal(b1-4)GlcNAc(b1-3)Gal(b1-4)GlcNAc(b1-3)Gal(b1-4)GlcNAc(b1-3)Gal(b1-4)GlcNAc(b1-3)Gal(b1-4)GlcNAc(b1-2)Man(a1-3)[Gal(b1-4)GlcNAc(b1-3)Gal(b1-4)GlcNAc(b1-3)Gal(b1-4)GlcNAc(b1-3)Gal(b1-4)GlcNAc(b1-3)Gal(b1-4)GlcNAc(b1-2)Man(a1-6)]Man(b1-4)GlcNAc(b1-4)[Fuc(a1-6)]GlcNAc. Put shortly:
as §1

The target in experiment [17] is Gal(b1-4)GlcNAc(b1-3)Gal(b1-4)GlcNAc(b1-3)Gal(b1-4)GlcNAc(b1-3)Gal(b1-4)GlcNAc(b1-3)Gal(b1-4)GlcNAc(b1-2)[Gal(b1-4)GlcNAc(b1-3)Gal(b1-4)GlcNAc(b1-3)Gal(b1-4)GlcNAc(b1-3)Gal(b1-4)GlcNAc(b1-3)Gal(b1-4)GlcNAc(b1-6)]Man(a1-6)[Gal(b1-4)GlcNAc(b1-3)Gal(b1-4)GlcNAc(b1-3)Gal(b1-4)GlcNAc(b1-3)Gal(b1-4)GlcNAc(b1-3)Gal(b1-4)GlcNAc(b1-2)Man(a1-3)]Man(b1-4)GlcNAc(b1-4)[Fuc(a1-6)]GlcNAc. Put shortly:
as §1

The target in experiment [18] is Gal(b1-4)GlcNAc(b1-3)Gal(b1-4)GlcNAc(b1-3)Gal(b1-4)GlcNAc(b1-3)Gal(b1-4)GlcNAc(b1-3)Gal(b1-4)GlcNAc(b1-3)Gal(b1-4)GlcNAc(b1-2)Man(a1-3)[Gal(b1-4)GlcNAc(b1-3)Gal(b1-4)GlcNAc(b1-3)Gal(b1-4)GlcNAc(b1-3)Gal(b1-4)GlcNAc(b1-3)Gal(b1-4)GlcNAc(b1-3)Gal(b1-4)GlcNAc(b1-2)Man(a1-6)]Man(b1-4)GlcNAc(b1-4)GlcNAc. Put shortly:
as §1

The target in experiment [19] is Gal(b1-4)GlcNAc(b1-3)Gal(b1-4)GlcNAc(b1-3)GalNAc. Put shortly: as §1

This is one part of the list.

B1: Gal-9-hFc (Mus musculus), O08573-2 (protein)
chain: MALFSAQSPYINPIIPFTGPIQGGLQEGLQVTLQGTTKSFAQRFVVNFQNSFNGNDIAFHFNPRFEEGGYVVCNTKQNGQWGPEERKMQMPFQKGMPFELCFLVQRSEFKVMVNKKFFVQYQHRVPYHLVDTIAVSGCLKLSFITFQTQNFRPAHQAPMAQTTIHMVHSTPGQMFSTPGIPPVVYPTPAYTIPFYTPIPNGLYPSKSIMISGNVLPDATRFHINLRCGGDIAFHLNPRFNENAVVRNTQINNSWGQEERSLLGRMPFSRGQSFSVWIICEGHCFKVAVNGQHMCEYYHRLKNLQDINTLEVAGDIQLTHVQT
With B1, the “glycan array binding signal (z-score)” value in [1] was 0; in experiment [2], -0.221; in [3], -0.311; in experiment [4] it was 1.94; in [5] it was -0.126; in experiment [6] it was 3.74. Further, the “glycan array binding signal (z-score)” value was 0.309 in [7]; -0.389 in [8]; 0.466 in [9]; -0.103 in experiment [10]; 0.363 in experiment [11]; -0.084 in experiment [12]. The “glycan array binding signal (z-score)” value was 0.028 in experiment [13]; 0.165 in [14]; -0.256 in experiment [15]; -0.251 in [16]; 0.046 in [17]; -0.006 in experiment [18]. Further, in [19], the “glycan array binding signal (z-score)” value was 0.354.
